What all share (assay): growth of human tumour cells (NCI), 48 h
In test [1] the test system is CCRF-CEM leukemia.
Test [2] relates to HOP-92 NSCLC.
Test [3] concerns NCI-H23 lung.
Test [4] has as its system UACC-257 melanoma.
For test [5], the system named is NCI-H226 lung.

SMILES strings stand for the structures.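 Cells were grown in 96-well plates and exposed to each compound for 48 hours at five concentrations; endpoints were interpolated linearly between bracketing concentrations, or set to the highest concentration if not reached. GI50: concentration for 50% inhibition of growth. TGI: total growth inhibition.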 Calls of active or inactive are those of the source.

Turning to `CC(C)(C)c1ccc(Oc2nccc(-c3c(-c4ccc(F)cc4)ncn3C3CCNCC3)n2)cc1`, the GI50 entry in test [1], in test [3], in test [4] and in test [5] was “inactive” in each case. Further, the TGI in test [1] amounted to 7.04 µM; in test [2], 4.37 µM; in test [3], 7.97 µM; in test [4], 7.67 µM; in test [5], 8.23 µM. Besides, the GI50 in test [2] was 0.179 µM.
